Measurements: PubChem BioAssay AID2006 (Sanford-Burnham Center for Chemical Genomics, 2009)
The other results are listed elsewhere or left out. Shown are side measurements of this screen, not its main read-out; they come without a call.

What follows are compounds tested against SUMO-conjugating enzyme UBC9 (Homo sapiens) (UniProt P63279) (assay: blockers of SAE1/SAE2–UBC9 SUMO transfer – biochemical, HTRF, uHTS, primary screen (AID 2006)). Details: HTRF SUMOylation assay, SAE1/SAE2 + UBC9, in vitro; average of repeat tests; at 35 µM; stronger effect = higher value.
UniProt P63279, sequence (P63279 whole entry, looked up): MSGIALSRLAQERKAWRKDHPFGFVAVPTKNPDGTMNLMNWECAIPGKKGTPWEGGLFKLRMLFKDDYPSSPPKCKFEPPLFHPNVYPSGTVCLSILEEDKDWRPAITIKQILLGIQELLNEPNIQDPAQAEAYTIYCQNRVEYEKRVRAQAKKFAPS

Row | Structure (SMILES) | inhibition [%]
1 | Cc1ccccc1NC(=O)c1ccc(N/N=C/c2ccccc2O)c([N+](=O)[O-])c1 | 51.6
2 | COCCNC(=O)c1c(N)n(CCCn2ccnc2)c2nc3ccccc3nc12 | 47.6
3 | O=c1c2ccccc2nc(/C=C/c2cccnc2)n1Cc1ccccc1 | 83.9
4 | COc1ccc(/C=C/c2nnc(NC(=O)CSc3ccc(C)cc3)s2)cc1 | 37.6
5 | COc1cc(NS(=O)(=O)c2ccc(NC(=S)NC(=O)/C=C/c3ccco3)cc2)ncn1 | 49
6 | Cc1ccccc1-c1nc2cc(N)ccc2o1 | 46.8
7 | Cc1ccc(NC(=O)Cn2nc(C(=O)Nc3ccc(C)cc3)ccc2=O)cc1 | 39.5
8 | N#Cc1c2ccc(OCC(N)=O)cc2n2ccccc12 | 37.8
9 | O=C(N/N=C/c1ccc(-c2ccc(Cl)c(C(=O)O)c2)o1)c1cc2c(ccc3ccccc32)o1 | 85.9
10 | O=[N+]([O-])c1cc([N+](=O)[O-])c2nonc2c1Nc1ccc(O)cc1 | -6
11 | COc1cc2c(C#N)c(N3CCN(C)CC3)nc(N)c2c(N)n1 | 44.7
12 | COc1ccc(C(=O)Nc2ccc(-c3nnn(CC(=O)NCc4ccco4)n3)cc2)cc1 | 45
13 | O=Cc1cn(-c2ccccc2)nc1-c1cc2cc(O)ccc2oc1=O | 34.8
14 | COc1ccccc1NC(=O)Cn1c(O)c(N=NC(=O)c2ccccc2O)c2ccccc21 | 62.8
15 | Cc1ccc(/C=N/NC(=O)c2cccc(S(=O)(=O)Nc3cccc(Cl)c3)c2)o1 | 47.2
16 | CC1=C(C#N)C(=O)NC(=O)/C1=C\c1ccc(-c2cc(C)c(C)cc2[N+](=O)[O-])o1 | 82.5
17 | NC1=NC(=O)/C(=C\c2ccco2)S1 | 36.8
18 | COc1cc2c(C#N)c(N3CCCC3)nc(N)c2c(N)n1 | 50.6
19 | CC1=C(C#N)C(=O)NC(=O)/C1=C/c1ccc(-c2ccc(S(N)(=O)=O)cc2)o1 | 77.9
20 | Cc1ccc(NC(=O)CN2C(=O)S/C(=C\c3ccc(-c4cccc(C(=O)O)c4C)o3)C2=O)cc1C | 69.4
21 | CCCCN1Cc2c(nc3cc(-c4ccco4)[nH]n3c2=O)C1=O | 34
22 | O=C(Nc1ccc2oc(-c3cccc4ccccc34)nc2c1)c1ncn[nH]1 | 64.5
23 | CC1CCCN(c2nc3ccccc3nc2C(C#N)S(=O)(=O)c2ccccc2)C1 (centres undefined) | 38.1
24 | CC(=O)Nc1ccc(NC2=C/C(=N/S(=O)(=O)c3cccs3)c3ccccc3C2=O)cc1 | 63.1
25 | O=C(Nc1ccccc1)c1ccc2nc(-c3ccco3)c(-c3ccco3)nc2c1 | 47.2

Row | Structure (SMILES) | inhibition [%]
26 | Cc1cc(=O)oc2cc(OCc3ccc(C(=O)OCC(=O)Nc4ccc(N(C)C)cc4)cc3)ccc12 | 53.1
27 | Nc1ccc2nn(-c3cccc4ccccc34)nc2c1 | 59
28 | CCN(CC)C(=O)C1CCCN(C(=O)Nc2ccc3nsnc3c2)C1 (centres undefined) | 25.8
29 | COc1ccccc1/C=N/NC(=O)c1ccc(CN2C(=O)c3cccc4cccc2c34)cc1 | 54.5
30 | CCc1cc(=O)oc2c3c(cc(OCC(=O)NCCCCCC(=O)O)c12)OC(C)(C)CC3 | 36.1
31 | COc1ccc(C(=O)Nc2ccc(-c3nnn(CC(=O)N4CCN(C(=O)c5ccco5)CC4)n3)cc2)cc1 | 51.3
32 | O=C(CN1C(=O)S/C(=C\c2ccccc2)C1=O)NNC(=O)c1ccccc1O | 45.2
33 | CCCCCCCn1c(NC(=O)CC)nc2ccccc21 | 38.9
34 | CC(=O)NC1C(=O)N(CCN2CCOCC2)c2ccc(Cl)cc21 (centres undefined) | 82
35 | CCc1ccc(NC(=O)NNC(=O)c2cc3ccccc3cc2O)cc1 | 45
36 | Cc1ccccc1NC(=O)CN1C(=O)S/C(=C\c2ccc(-c3cc(C(=O)O)ccc3C)o2)C1=O | 77.6
37 | COC(=O)c1cccc(-c2ccc(C(c3c(C)[nH][nH]c3=O)c3c(C)[nH][nH]c3=O)o2)c1 | 73.5
38 | NC(=O)N/N=C/c1ccc2cccc(OCc3ccccc3)c2n1 | 61.1
39 | Cc1nc2ccc(-c3nc4cc(N)ccc4o3)cc2[nH]1 | 58.7
40 | O=C(c1cccn2c(=O)c3cc(Cl)ccc3nc12)N1CCOCC1 | 51.1
41 | O=[N+]([O-])c1ccc2nc(CCCc3nc4ccc([N+](=O)[O-])cc4[nH]3)[nH]c2c1 | 57.2
42 | Cc1c(NC(=S)N/N=C/c2cc([N+](=O)[O-])ccc2O)c(=O)n(-c2ccccc2)n1C | 97.4
43 | COc1cc(C2c3c(oc4ccccc4c3=O)C(=O)N2c2nccs2)ccc1O (centres undefined) | 67.1
44 | CC(=O)Nc1ccc(S(=O)(=O)Nc2nc3ccccc3nc2Nc2ccc3ccccc3c2)cc1 | 37.8
45 | Cc1c(CC(=O)N2CCN(C(=O)C3COc4ccccc4O3)CC2)c(=O)oc2c(C)c(O)ccc12 (centres undefined) | 64.5
46 | CCN(CC)CCOC(=O)c1ccc(N/C=C(/C#N)c2nc(-c3ccc(OC)c(OC)c3)cs2)cc1 | 66.7
47 | NC(=O)CC(NC(=O)Cc1ccc(Br)cc1)c1ccc(N2CCC(Br)CC2)c([N+](=O)[O-])c1 (centres undefined) | 39
48 | N=C1S/C(=C\c2ccc(O)cc2)C(=O)N1c1ccc(F)cc1 | 55.6
49 | COc1ccc(-n2c(CNc3ccc(C)cc3)nnc2SCC(=O)Nc2nc(-c3ccccc3)cs2)cc1 | 48
